From the supplement of paper PMC10320760
This is a noisy data set.

B1: Ydj1; a variant is named by its letters at X, in order (parent)
chain: MVKETKFYDILGVPVTATDVEIKKAYRKCALKYHPDKNPSEEAAEKFKEASAAYEILSDPEKRDIYDQFGEDGLSGAGGAGGFPGGGFGFGDDIFSQFFGAGGAQRPRGPQRGKDIKHEISASLEELYKGRTAKLALNKQILCKECEGRGGKKGAVKKCTSCNGQGIKFVTRQMGPMIQRFQTECDVCHGTGDIIDPKDRCKSCNGKKVENERKILEVHVEPGMKDGQRIVFKGEADQAPDVIPGDVVFIVSERPHKSFKRDGDDLVYEAEIDLLTAIAGGEFALEHVSGDWLKVGIVPGEVIAPGMRKVIEGKGMPIPKYGGYGNLIIKFTIKFPENHFTSEENLKKLEEILPPRIVPAIPKKATVDECVLADFDPAKYNRTRASRGGANYDSDEEEQGGEGVQCXXX

Variants of: B1
Assay: enrichment factor, frequency at 37 °C / frequency at 25 °C (thermotolerance selection) (ratio); higher = more growth at 37 °C, higher likelihood of farnesylation
Settings: with Saccharomyces cerevisiae ydj1Δ (yWS304); selective temperature 37 °C; reference temperature 25 °C

Row | Variant | enrichment factor
1 | NQE | 0.364
2 | NQN | 1.57
3 | NQQ | 1.71
4 | NQK | 0.233
5 | NQG | 1.57
6 | NQI | 1.82
7 | NQD | 0.637
8 | NQC | 1.69
9 | NQA | 1.41
10 | NQM | 1.45
11 | NQR | 0.162
12 | NQS | 2.01
13 | NQH | 1.38
14 | NQP | 0.183
15 | NQF | 1.65
16 | NQL | 1.5
17 | QQL | 1.91
18 | QQI | 2.21
19 | QQQ | 1.83
20 | QQF | 2.86
21 | QQH | 2
22 | QQP | 0.147
23 | QQN | 1.79
24 | QQM | 2.75

Row | Variant | enrichment factor
25 | QQE | 0.697
26 | QQA | 1.91
27 | QQR | 0.189
28 | QQC | 2.65
29 | QQD | 0.798
30 | QQK | 0.155
31 | QQS | 1.66
32 | QQG | 1.61
33 | MPY | 1.83
34 | YQI | 1.48
35 | YQF | 2.48
36 | YQM | 2.56
37 | YQE | 0.261
38 | YQK | 0.155
39 | YQH | 1.51
40 | YQG | 1.67
41 | YQD | 0.494
42 | YQR | 0.136
43 | YQP | 0.406
44 | YQC | 3.98
45 | YQA | 2.98
46 | YQL | 1.52
47 | YQQ | 2.55
48 | YQN | 2.19

Row | Variant | enrichment factor
49 | NPY | 1.93
50 | YPY | 1.73
51 | QPY | 2.29
52 | KQI | 1.27
53 | KQN | 1.85
54 | KQS | 2.12
55 | KQD | 1.54
56 | KQH | 1.55
57 | KQQ | 1.63
58 | KQP | 0.174
59 | KQA | 1.43
60 | KQC | 1.86
61 | KQF | 1.67
62 | KQR | 0.162
63 | KQG | 1.67
64 | KQL | 1.34
65 | KQK | 0.298
66 | KQE | 1.22
67 | KQM | 1.87
68 | TQI | 1.57
69 | TQQ | 1.54
70 | TQP | 0.161
71 | TQN | 1.69
72 | TQF | 2.28

Row | Variant | enrichment factor
73 | TQR | 0.182
74 | TQL | 1.73
75 | TQM | 2.2
76 | TQD | 1.42
77 | TQK | 0.207
78 | TQS | 2.01
79 | TQH | 1.76
80 | TQG | 1.57
81 | TQE | 1.26
82 | TQA | 1.89
83 | TQC | 1.86
84 | WPY | 1
85 | LQN | 1.35
86 | LQK | 0.561
87 | LQC | 0.886
88 | LQI | 1.9
89 | LQE | 1.47
90 | LQD | 1.31
91 | LQM | 1.73
92 | LQQ | 1.53
93 | LQS | 1.69
94 | LQA | 1.46
95 | LQL | 1.64
96 | LQH | 1.46

Row | Variant | enrichment factor
97 | LQP | 0.143
98 | LQR | 0.255
99 | LQG | 1.22
100 | LQF | 1.79
101 | VPY | 2.55
102 | IPY | 2.45
103 | TPY | 1.97
104 | FQK | 0.227
105 | FQP | 1.57
106 | FQI | 1.61
107 | FQC | 1.51
108 | FQN | 1.68
109 | FQF | 1.43
110 | FQQ | 2.48
111 | FQR | 0.105
112 | FQL | 0.914
113 | FQD | 0.434
114 | FQG | 1.5
115 | FQM | 1.74
116 | FQH | 1.61
117 | FQS | 1.77
118 | FQA | 1.5
119 | FQE | 0.306
120 | MQK | 0.126

Row | Variant | enrichment factor
121 | MQQ | 1.6
122 | MQA | 1.6
123 | MQF | 1.94
124 | MQH | 1.78
125 | MQN | 1.48
126 | MQI | 1.85
127 | MQG | 2.32
128 | MQL | 1.58
129 | MQC | 1.53
130 | MQE | 0.924
131 | MQP | 0.137
132 | MQD | 0.65
133 | MQS | 1.7
134 | MQR | 0.127
135 | MQM | 2.4
136 | SQF | 1.9
137 | SQD | 0.893
138 | SQN | 1.8
139 | SQS | 1.95
140 | SQI | 1.63
141 | SQP | 0.163
142 | SQA | 1.49
143 | SQL | 1.72
144 | SQR | 0.13

Row | Variant | enrichment factor
145 | SQC | 1.67
146 | SQG | 1.61
147 | SQQ | 1.49
148 | SQH | 1.99
149 | SQK | 0.188
150 | SQE | 0.936
151 | SQM | 1.41
152 | PPY | 1.37
153 | CPY | 1.49
154 | DQD | 0.0836
155 | DQK | 0.149
156 | DQE | 0.139
157 | DQP | 0.179
158 | DQA | 0.574
159 | DQS | 1.14
160 | DQH | 0.259
161 | DQF | 1.35
162 | DQL | 0.134
163 | DQR | 0.163
164 | DQM | 1.78
165 | DQN | 0.29
166 | DQI | 0.2
167 | DQG | 0.163
